Assay results as given in PubChem BioAssay (Tox21).
Values joined by “and” are separate entries in the source; they are usually repeats but may differ in a detail not shown here. Equal values may be shown once. The inconclusive results got no clear call from the source; some entries with a clear call stand among them for comparison. Potencies of inconclusive entries are doubtful fits and often do not repeat. Active and inactive are the calls of the source. Calls come from the whole dose curve; as a rule, active = well fitted curve in the direction sought with a large enough effect in the repeat runs; inconclusive = weak or mixed curves; inactive = no such curve, though single readings can be large; an effect the other way counts as inactive or inconclusive.

system: not listed separately; assay: qHTS assay to identify small molecule antagonists of the constitutive androstane receptor (CAR) signaling pathway - cell viability counter screen (AID 1224837); settings: HepG2-CYP2B6-hCAR viability, CellTiter-Fluor, 23 h, co-treated with 50 nM CITCO; series mostly up to 92.4 µM; activity change, negative = cytotoxicity: at the top concentration; note: nearly all actives have a fitted effect of over 45% in size
Summary of the method: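 HepG2-CYP2B6-hCAR cells, 2500/well, 4 hr pre-incubation; compound titration, 15 conc.; CITCO 50 nM final; 23 hr, 37 C/5% CO2; CellTiter-Fluor, fluorescence intensity.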
% is set by controls: 0 for no effect and ±100 for the full control effect; potency is the fitted concentration of half-maximal effect; tags give direction and shape of the fitted curve.

SMILES | Potency | activity change, negative = cytotoxicity
OC(Cn1cncn1)(Cn1cncn1)c1ccc(F)cc1F | inactive | –
CCc1ccc(Br)cc1 | – | inactive: -0.547%
CCCc1ccc(OCC(=O)N2CCN(C(=O)COc3ccc(CCC)cc3OC)CC2)c(OC)c1 | inconclusive: 33.5 µM [cytotoxic] | –
CC1=CC[C@@]23C[C@@H]1C(C)(C)[C@@H]2CC[C@H]3C | – | inactive: 3.09%
C=CCn1c(=O)n(CC=C)c(=O)n(CC=C)c1=O | – | inactive: 2.49%
Cc1nc(N)nc(N)c1-c1ccc(Cl)c(Cl)c1 | inconclusive: 4.22 µM [cytotoxic, full curve, poor fit] | –
CCOC(=O)CC(O)(CC(=O)OCC)C(=O)OCC | – | inactive: 0.222%
CCCNCCC | – | inactive: 1.44%
O=C(/C=C/c1ccccc1)OC/C=C/c1ccccc1 | – | inactive: 9.26%
Cc1c[nH]c2ccccc12 | – | inactive: 7.68% [at 42.5 µM]
COCCOC | inconclusive: 0.924 µM [cytotoxic, full curve] | –
COCCOC(=O)C1=C(C)NC(C)=C(C(=O)OC/C=C/c2ccccc2)C1c1cccc([N+](=O)[O-])c1 (stereo not given) | inconclusive: 29.8 µM [cytotoxic, partial curve, poor fit] | –
O=C1CCCCCN1SSN1CCCCCC1=O | inconclusive: 43.3 µM [cytotoxic, partial curve] | –
CCOCCOCCOCC | – | inactive: 2.15%
CS(=O)(=O)Nc1ccc([N+](=O)[O-])cc1Oc1ccccc1 | inconclusive: 48.6 µM [cytotoxic, partial curve] | –
c1ccc(C[P+](c2ccccc2)(c2ccccc2)c2ccccc2)cc1 | inconclusive: 27.3 µM [cytotoxic, partial curve] | –
CO[C@H]1O[C@H](CO)[C@@H](O)[C@H](O)[C@H]1O | – | inactive: -1.89%
CNCc1ccc(NC(=O)c2c[nH]c3c2C(=O)CCC3)cc1 | inconclusive: 54.5 µM [cytotoxic, partial curve, poor fit] | –
N[C@H]1C(O)O[C@H](CO)[C@@H](O)[C@@H]1O (stereo not given in full) | – | inactive: 2.41% [at 42.5 µM]
CCCCCCCCCCCC(=O)OCC(O)CO (stereo not given) | – | inactive: -8.67%

SMILES | Potency | activity change, negative = cytotoxicity
CC(=O)OC1CCC(C(C)(C)C)CC1 (stereo not given) | – | inactive: -2.92%
O=C1NC(=O)[C@@H]2CC=CC[C@H]12 | – | inactive: -6.06%
CC1=Nc2ccc3ccccc3c2C1(C)C | inconclusive: 43.3 µM [cytotoxic, partial curve] | –
Cc1ccc(C=O)cc1C | – | inactive: 2.83%
N[C@@H](COP(=O)(O)O)C(=O)O | – | inactive: 10.4% [at 19 µM]
Cc1ccc(C(=O)O)o1 | inactive | –
C[Si](O[Si](C)(C)C)O[Si](C)(C)C | inactive | –
OCc1ccccc1O | – | inactive: 4.94% [at 42.5 µM]
CN(C)Cc1cc(C(C)(C)C)c(O)c(C(C)(C)C)c1 | – | inactive: 10.4%
c1csc(SSc2cccs2)c1 | active: 48.6 µM | –
O=C1CCCc2c1cc1ccc3cccc4ccc2c1c34 | inconclusive: 27.6 µM [cytotoxic, partial curve, poor fit] | –
CCCCC(=O)N(C)C | – | inactive: -0.817%
C/C=C(\C)C(C)=O | – | inactive: 1.5%
Cc1c(C(=O)NN2CCCCC2)nn(-c2ccc(Cl)cc2Cl)c1-c1ccc(Cl)cc1 | – | inactive: -19.9% [at 42.5 µM]
CCOC(=O)/C=C\C(=O)OCC | inactive | –
C[C@]12CC[C@@H]3c4ccc(O)cc4CC[C@H]3[C@@H]1CC[C@H]2O | inactive | –
C=C1c2cccc(O)c2C(O)=C2C(=O)[C@]3(O)C(O)=C(C(N)=O)C(=O)[C@@H](N(C)C)[C@@H]3[C@@H](O)[C@H]12 | – | inactive: 7.58% [at 42.5 µM]
NCCCNCCSP(=O)(O)O | – | inactive: 2.76% [at 8.39 µM]
CC[C@@H]([C@H](C)O)n1ncn(-c2ccc(N3CCN(c4ccc(OC[C@@H]5CO[C@@](Cn6cncn6)(c6ccc(F)cc6F)C5)cc4)CC3)cc2)c1=O | inconclusive: 21.1 µM [cytotoxic, partial curve] | –
C#C[C@]1(OC(C)=O)CC[C@H]2[C@@H]3CCC4=C[C@@H](OC(C)=O)CC[C@@H]4[C@H]3CC[C@@]21C | – | inactive: -0.576% [at 42.5 µM]

biological target: Nuclear receptor subfamily 1 group I member 3 (Homo sapiens) (UniProt Q14994); assay: qHTS assay to identify small molecule antagonists of the constitutive androstane receptor (CAR) signaling pathway (AID 1224838); settings: HepG2-CYP2B6-hCAR luciferase, CITCO-stimulated, 24 h; series mostly up to 92.4 µM; activity, negative = inhibition: at the top concentration; note: nearly all actives have a fitted effect of over 40% in size
Summary of the method: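 HepG2-CYP2B6-hCAR cells; 4 h pre-incubation; cpd (15 conc) + CITCO 50 nM final; 24 h, 37 C/5% CO2; ONE-Glo, luminescence.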

Sequence of UniProt Q14994 (Q14994 whole entry, looked up): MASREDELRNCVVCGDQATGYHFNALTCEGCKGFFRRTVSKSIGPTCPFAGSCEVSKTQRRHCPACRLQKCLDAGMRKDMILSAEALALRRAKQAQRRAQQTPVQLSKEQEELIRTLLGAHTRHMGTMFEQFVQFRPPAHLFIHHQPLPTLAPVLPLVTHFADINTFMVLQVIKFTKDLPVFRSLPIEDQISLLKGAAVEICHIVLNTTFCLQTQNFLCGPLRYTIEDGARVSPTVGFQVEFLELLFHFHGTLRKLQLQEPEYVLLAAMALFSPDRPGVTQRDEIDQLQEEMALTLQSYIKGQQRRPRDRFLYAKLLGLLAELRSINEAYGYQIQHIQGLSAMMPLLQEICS

SMILES | Potency | activity, negative = inhibition
CC1=CC[C@@]23C[C@@H]1C(C)(C)[C@@H]2CC[C@H]3C | inconclusive: 17.2 µM [inhibitor, full curve, poor fit] | –
Cc1c[nH]c2ccccc12 | – | inactive: 0.0648% [at 42.5 µM]
c1ccc(C[P+](c2ccccc2)(c2ccccc2)c2ccccc2)cc1 | inconclusive: 19.3 µM [inhibitor, full curve] | –
CCCCCCCCCCCC(=O)OCC(O)CO (stereo not given) | – | inactive: -5.81%
O=C1NC(=O)[C@@H]2CC=CC[C@H]12 | – | inactive: -7.94%
C#C[C@]1(OC(C)=O)CC[C@H]2[C@@H]3CCC4=C[C@@H](OC(C)=O)CC[C@@H]4[C@H]3CC[C@@]21C | inconclusive: 5.31 µM [inhibitor, partial curve] | –

biological target: Nuclear receptor subfamily 1 group I member 3 (Homo sapiens) (UniProt Q14994); assay: qHTS assay to identify small molecule agonists of the constitutive androstane receptor (CAR) signaling pathway (AID 1224839); settings: HepG2 hCAR CYP2B6-luciferase, agonist mode, 24 h; series mostly up to 92.4 µM; activation: at the top concentration; note: nearly all actives have a fitted effect of over 15% in size;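 for activation: HepG2 cells stably carrying human CAR and a CYP2B6 luciferase reporter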
Summary of the method: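 HepG2 cells stably expressing hCAR and a CYP2B6-2.2kb luciferase reporter were treated with compounds at 15 concentrations plus 0.75 uM PK11195 (final) for 24 h at 37 C; luminescence was read after ONE-Glo addition.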

SMILES | Potency | activation
CCOC(=O)CC(O)(CC(=O)OCC)C(=O)OCC | inconclusive: 68.6 µM [activator, partial curve, poor fit] | –
O=C(/C=C/c1ccccc1)OC/C=C/c1ccccc1 | inconclusive: 30.6 µM [activator, partial curve] | –
COCCOC(=O)C1=C(C)NC(C)=C(C(=O)OC/C=C/c2ccccc2)C1c1cccc([N+](=O)[O-])c1 (stereo not given) | inconclusive: 33.5 µM [activator, single point] | –
O=C1CCCCCN1SSN1CCCCCC1=O | – | inactive: -1.01%
C[Si](O[Si](C)(C)C)O[Si](C)(C)C | inactive | –
O=C1CCCc2c1cc1ccc3cccc4ccc2c1c34 | inconclusive: 15.5 µM [activator] | –
C/C=C(\C)C(C)=O | – | inactive: -0.469%
Cc1c(C(=O)NN2CCCCC2)nn(-c2ccc(Cl)cc2Cl)c1-c1ccc(Cl)cc1 | – | inactive: -7.25% [at 42.5 µM]
C[C@]12CC[C@@H]3c4ccc(O)cc4CC[C@H]3[C@@H]1CC[C@H]2O | inconclusive: 69.8 µM [activator, partial curve, poor fit] and inconclusive: 21.7 µM [activator, partial curve] | –
